Reference: patent US20240390418A1 (MINERVA BIOTECHNOLOGIES, published 2024)

Experiments:
Test in all cases: ELISA, peptide on plate (FIG. 8)
C-10 peptide = molecular target: T1, C-10 peptide
T1 construct: also called PSMGFR C-10; PSMGFR minus 10 amino acids from the C-terminus
T1 peptide: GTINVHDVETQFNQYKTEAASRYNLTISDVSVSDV
Excerpt: (§1) The huMNE6 scFv-Fc bound to the PSMGFR peptide and to the PSMGFR N-10 peptide but not to the PSMGFR C-10 peptide. The parent MNE6 antibody and the humanized MNE6 require the C-terminal 10 amino acids of PSMGFR for binding.

N-10 peptide = molecular target: T2, N-10 peptide
T2 construct: also called PSMGFR N-10; PSMGFR minus 10 amino acids from the N-terminus
T2 peptide: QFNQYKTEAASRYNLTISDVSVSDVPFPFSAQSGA
Excerpt: as §1

PSMGFR peptide = molecular target: T3, PSMGFR peptide
T3 construct: also called MUC1* peptide
T3 peptide: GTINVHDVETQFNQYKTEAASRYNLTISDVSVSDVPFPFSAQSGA
Excerpt: as §1

binding result (C-10 peptide): no binding | binding result (N-10 peptide): binds | binding result (PSMGFR peptide): binds
B1: humanized MNE6 scFv-Fc (Fc fusion)
chain: DAAQPAEVQLVESGGGLVKPGGSLRLSCAASGFTFSRYGMSWVRQAPGKRLEWVSTISGGGTYIYYPDSVKGRFTISRDNAKNTLYLQMNSLRAEDTAVYYCTRDNYGRNYDYGMDYWGQGTLVTVSSGGGGSGGGGSGGGGSEIVLTQSPATLSLSPGERATLTCSATSSVSYIHWYQQRPGQSPRLLIYSTSNLASGIPARFSGSGSGSDYTLTISSLEPEDFAVYYCQQRSSSPFTFGSGTKVEIK[… human IgG1 Fc …]
notes: also called huMNE6 scFv-Fc; hMNE6 scFv-Fc
